# Source: PubChem BioAssay AID504333 (National Center for Advancing Translational Sciences (NCATS), 2011)
# Among all 360,000 compounds or so, about 16,000 (4.4%) were called active. The inconclusive results got no clear call from the source; some entries with a clear call stand among them for comparison. The call rests on the fitted dose curve; in most records, active means well fitted inhibition curve with a large enough effect; inconclusive means small, poorly fitted or top-dose-only effect; inactive means no such curve, though single readings can be large or run the other way. Potencies of inconclusive entries are doubtful fits and often do not repeat.
# Target: Bromodomain adjacent to zinc finger domain protein 2B (Homo sapiens) (UniProt Q9UIF8)
# Assay: qHTS Assay for Inhibitors of BAZ2B; further: nearly all actives have a fitted effect of over 60% in size
# Settings: AlphaScreen BAZ2B-H3K14Ac peptide displacement; activity change, negative = inhibition: at 114 µM (top of the series) unless noted
# Procedure, shortened: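 Protein-peptide AlphaScreen: BAZ2B 50 nM, b-H3K14Ac 50 nM, 1x PBS pH 7.4 + 0.01% Tween-20. Preincubation 30 min RT; cpd 30 min RT (top 110 uM); beads 20 min RT, light-protected.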
# On the % scale 0 is the no-effect control and ±100 the full control effect; potency means the concentration at half of the fitted maximal effect; tags describe the fitted curve by direction and shape.
# Chain of UniProt Q9UIF8 (Q9UIF8 whole entry, looked up, the tested form may be a part): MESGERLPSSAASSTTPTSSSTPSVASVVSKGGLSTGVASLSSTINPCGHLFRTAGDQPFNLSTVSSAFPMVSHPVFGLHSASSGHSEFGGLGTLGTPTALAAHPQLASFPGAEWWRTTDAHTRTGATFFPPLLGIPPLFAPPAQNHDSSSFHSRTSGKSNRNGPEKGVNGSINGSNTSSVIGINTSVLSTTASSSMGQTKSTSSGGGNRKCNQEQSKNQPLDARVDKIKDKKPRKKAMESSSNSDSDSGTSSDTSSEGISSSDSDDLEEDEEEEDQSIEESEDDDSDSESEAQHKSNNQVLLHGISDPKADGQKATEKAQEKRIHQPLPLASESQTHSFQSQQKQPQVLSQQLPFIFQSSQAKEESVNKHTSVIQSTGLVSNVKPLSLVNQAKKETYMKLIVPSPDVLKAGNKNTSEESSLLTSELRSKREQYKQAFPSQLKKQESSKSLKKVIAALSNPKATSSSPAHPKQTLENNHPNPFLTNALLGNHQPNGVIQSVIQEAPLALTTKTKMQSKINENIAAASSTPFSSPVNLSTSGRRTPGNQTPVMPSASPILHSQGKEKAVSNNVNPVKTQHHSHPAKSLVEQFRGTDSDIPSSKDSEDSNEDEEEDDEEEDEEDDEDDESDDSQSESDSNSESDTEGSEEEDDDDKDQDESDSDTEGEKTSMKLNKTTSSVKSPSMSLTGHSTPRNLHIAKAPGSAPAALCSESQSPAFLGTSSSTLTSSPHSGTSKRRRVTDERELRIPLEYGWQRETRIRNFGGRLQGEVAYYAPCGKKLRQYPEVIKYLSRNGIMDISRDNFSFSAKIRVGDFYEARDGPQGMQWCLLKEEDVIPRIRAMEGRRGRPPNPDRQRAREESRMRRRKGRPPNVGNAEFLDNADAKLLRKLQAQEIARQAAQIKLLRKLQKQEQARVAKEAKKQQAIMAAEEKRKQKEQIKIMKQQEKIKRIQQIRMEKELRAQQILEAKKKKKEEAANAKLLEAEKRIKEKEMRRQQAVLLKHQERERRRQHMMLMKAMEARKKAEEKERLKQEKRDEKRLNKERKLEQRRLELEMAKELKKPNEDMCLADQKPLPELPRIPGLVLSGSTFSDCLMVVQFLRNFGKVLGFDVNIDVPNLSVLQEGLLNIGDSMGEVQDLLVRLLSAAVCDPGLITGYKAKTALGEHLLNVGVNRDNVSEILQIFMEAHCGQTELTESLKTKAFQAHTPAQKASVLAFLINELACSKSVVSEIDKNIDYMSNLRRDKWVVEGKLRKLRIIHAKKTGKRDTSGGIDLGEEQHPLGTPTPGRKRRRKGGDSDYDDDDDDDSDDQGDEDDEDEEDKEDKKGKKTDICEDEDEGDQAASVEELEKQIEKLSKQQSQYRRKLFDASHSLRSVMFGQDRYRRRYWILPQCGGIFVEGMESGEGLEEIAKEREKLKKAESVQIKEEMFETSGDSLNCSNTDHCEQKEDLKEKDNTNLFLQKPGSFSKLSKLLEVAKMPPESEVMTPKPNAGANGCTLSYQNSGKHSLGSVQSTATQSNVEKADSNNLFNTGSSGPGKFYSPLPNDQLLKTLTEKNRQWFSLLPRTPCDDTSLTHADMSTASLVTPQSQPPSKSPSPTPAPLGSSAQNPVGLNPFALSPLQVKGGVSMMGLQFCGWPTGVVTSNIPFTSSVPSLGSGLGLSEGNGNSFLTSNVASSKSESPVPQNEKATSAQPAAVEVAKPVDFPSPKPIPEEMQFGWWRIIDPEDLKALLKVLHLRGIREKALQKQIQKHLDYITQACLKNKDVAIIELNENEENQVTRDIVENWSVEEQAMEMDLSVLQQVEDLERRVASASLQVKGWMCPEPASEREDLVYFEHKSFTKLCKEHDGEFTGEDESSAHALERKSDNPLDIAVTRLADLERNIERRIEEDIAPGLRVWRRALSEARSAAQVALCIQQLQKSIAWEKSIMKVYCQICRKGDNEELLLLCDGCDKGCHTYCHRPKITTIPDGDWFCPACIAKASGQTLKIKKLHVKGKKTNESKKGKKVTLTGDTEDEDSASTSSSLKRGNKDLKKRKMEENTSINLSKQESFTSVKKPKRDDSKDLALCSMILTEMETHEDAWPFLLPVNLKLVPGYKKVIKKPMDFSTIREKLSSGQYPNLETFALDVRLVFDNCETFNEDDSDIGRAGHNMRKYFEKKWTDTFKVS
Compound,Potency,"activity change, negative = inhibition"
CCOC(=O)C1=C(C)N=c2s/c(=C\c3ccc(OCC(=O)O)cc3)c(=O)n2C1c1ccccc1OC (configuration not stated),active: 79.4 µM,
Cc1cc(NC(=O)Nc2ccc(Cl)cc2)n(C)n1,,inactive: 0.106%
CCC(C)(C)NC(=O)c1sccc1Oc1ccc(F)cc1[N+](=O)[O-],"inconclusive: 44.7 µM [inhibitor, partial curve]",
NNC(=O)CSc1nc(-c2ccccc2)nc2c1CCCC2,"inconclusive: 63.1 µM [inhibitor, partial curve, poor fit]",
CC(CN1CCN(Cc2ccccc2)CC1)c1ccccc1 (configuration not stated),,inactive: -7.54%
COc1ccc([C@@H]2[C@@H]3C(=O)N(C(C)(C)C)C(=O)[C@@H]3[C@]3(Cc4ccc(Cl)cc4)C(=O)N(c4cccc(Br)c4)C(=O)N23)cc1,,inactive: -4.8%
Cc1ccc(S(=O)(=O)Nc2cccc(-c3cn4cccc(C)c4n3)c2)c(C)c1,"inconclusive: 56.2 µM [inhibitor, partial curve]",
c1csc(-c2ccn[nH]2)c1,,inactive: -2.83%
NC(=O)c1sc2nc(N3CCCCC3)c3c(c2c1N)CCCC3,"inconclusive: 89.1 µM [inhibitor, single point]",
O=c1[nH]c2ccccc2nc1C(Cl)c1ccccc1 (configuration not stated),active: 56.2 µM,
O=C(O)c1cc([N+](=O)[O-])c(Nc2cccc3ccccc23)c([N+](=O)[O-])c1,"inconclusive: 39.8 µM [inhibitor, partial curve]",
COc1cc2c(cc1OC)C(COc1cccc(C(F)(F)F)c1)N(C(=O)c1ccc(S(=O)(=O)N3CCCC3)cc1)CC2 (configuration not stated),,inactive: -2.98%
Cc1ccc(NC(=S)c2ccncc2)c(C)c1,"inconclusive: 79.4 µM [inhibitor, single point]",
Brc1ccc2nc(-c3c[nH]c4ccccc34)cn2c1,active: 44.7 µM,
CN1CCC(OC(c2ccccc2)c2ccccc2)CC1,,inactive: 3.86%
Cc1cc(C)c2c(=O)n(CC(=O)NCCCN3CCN(c4ccccc4F)CC3)sc2n1,"inconclusive: 89.1 µM [inhibitor, single point]",
CCc1cccc(NC(=O)CCS(=O)(=O)c2ccc(Br)cc2)c1,active: 31.6 µM,
CC(C)(C)c1ccc(OCCOCCn2cnc3ccccc3c2=O)cc1,"inconclusive: 100 µM [inhibitor, single point]",
CC(Sc1nncn1C)C(=O)Nc1ccc(S(N)(=O)=O)cc1 (configuration not stated),,inactive: -1.66%
COc1cc2c(cc1OC)n(Cc1cccc(C(F)(F)F)c1)c(=O)n1nc(-c3ccccc3)nc21,,inactive: -4.37%
CC(C)N1C(=O)C2ON(c3ccccc3)C(c3cccs3)C2C1=O (configuration not stated),,inactive: 0.834%
CN(C)CCN(C(=O)c1ccc2c(c1)CCCC2)c1nc2cc3c(cc2s1)OCCO3,,inactive: -1.28%
O=C(NCCc1ccccc1)c1nc(-c2ccc(Cl)cc2)n2c1CCCCC2,active: 25.1 µM,
Nc1ccc2nc(-c3cccs3)[nH]c2c1,"inconclusive: 79.4 µM [inhibitor, single point]",

Compound,Potency,"activity change, negative = inhibition"
CCc1ccccc1NC(=S)NCC1CCN(c2ccc(OC)cc2)C1 (configuration not stated),active: 22.4 µM,
O=[N+]([O-])c1ccc(N2CCOCC2)cc1NCc1ccccc1,"inconclusive: 17.8 µM [inhibitor, partial curve]",
COc1cccc(C(=O)NCC(=O)N/N=C(\C)Cc2ccccc2)c1,,inactive: -19.6%
COC(=O)c1nn(-c2ccc3c(c2)CCN3C(C)=O)cc1O,"inconclusive: 89.1 µM [inhibitor, single point]",
O=S(=O)(NCCS(=O)(=O)N1CCN(c2ccccc2)CC1)c1ccc(Br)cc1,,inactive: -7.21%
Cc1c(C(=O)N2CCN(Cc3ccc4c(c3)OCO4)CC2)sc2ncnc(N3CCN(c4ccccc4F)CC3)c12,"inconclusive: 25.1 µM [inhibitor, partial curve]",
Cc1ccc(NC(=O)c2ccc(Cl)c(S(=O)(=O)Nc3c(C)n(C)n(-c4ccccc4)c3=O)c2)cc1Cl,"inconclusive: 89.1 µM [inhibitor, single point]",
Cc1cc(=O)n(Cc2ccccc2)c(O)c1C#N,"inconclusive: 89.1 µM [inhibitor, single point]",
CCc1ccc(S(=O)(=O)c2nnn3c2nc(Nc2cc(OC)ccc2OC)c2sccc23)cc1,,inactive: -10.1%
O=C1c2cccnc2C(=O)N1Cc1ccco1,,inconclusive: -110% [inhibitor]
CCc1nnc(NC(=O)CSc2nc3c(c(=O)n2-c2ccccc2OC)SCC3)s1,"inconclusive: 89.1 µM [inhibitor, single point]",
C=CCC1(C#N)C(SC)=NC2=C(C(=O)CC(C)(C)C2)C1c1ccc(Br)cc1 (configuration not stated),"inconclusive: 31.6 µM [inhibitor, full curve, poor fit]",
CCOc1ccc(NC(=O)CC2SC(=O)N(c3ccccc3)C2=O)cc1 (configuration not stated),"inconclusive: 50.1 µM [inhibitor, partial curve]",
O=C(c1cnn(-c2ccc(F)cc2)c1-n1cccc1)N1CCN(c2ccc(F)cc2)CC1,"inconclusive: 89.1 µM [inhibitor, single point]",
CC1=C(C(=O)Nc2cccc(Cl)c2C)C2(CCCCCC2)OC1=O,,inactive: -9.61%
Cc1c(C#N)c(NC(=O)C(C)C)n(Cc2ccccc2)c1C,"inconclusive: 79.4 µM [inhibitor, single point]",
COc1ccc(OC)c(CNC(=O)c2ccc(Sc3ccc(C)cc3)c(N)c2)c1,"inconclusive: 22.4 µM [inhibitor, full curve]",
CCc1ccc(-n2nc(C)c3c(C)cc(=O)n(Cc4nc(-c5ccccc5)oc4C)c32)cc1,,inactive: 22.5%
CCCc1nn2c(=O)cc(COC(=O)c3ccccc3NC(=O)COc3ccccc3F)nc2s1,,inactive: -6.34%
CCOC(=O)c1c(C)[nH]c(C(=O)N2CCCC(C(=O)c3ccccc3OC)C2)c1C (configuration not stated),"inconclusive: 44.7 µM [inhibitor, partial curve]",
CCN(C(=O)c1ccco1)c1nc(-c2ccc(OC)cc2)cs1,active: 79.4 µM,
O=C(CSc1n[nH]c(=O)n1C1CC1)N1N=C(c2ccc(Cl)cc2)CC1c1ccco1 (configuration not stated),,inactive: -34.3%
COc1cccc(C2(C)NC(=O)N(CC(=O)c3cc(C)n(C4CC4)c3C)C2=O)c1 (configuration not stated),"inconclusive: 89.1 µM [inhibitor, single point]",
C#CCOCCOCCOCCNc1nc(N2CCN(C(=O)CCCCCCCCCCNC(=O)[C@H](CCCCN)n3cc(C)nn3)CC2)nc(N2CCN(C(=O)CCCCCCCCCCNC(=O)[C@H](CO)n3cc(CCCSC)nn3)CC2)n1,"inconclusive: 50.1 µM [inhibitor, partial curve]",

Compound,Potency,"activity change, negative = inhibition"
Cc1ccc(C(=O)Nc2cc3c(cc2C)n(C)c(=O)c(=O)n3C)cc1,,inactive: 0.987%
COc1c(/C=N/NC(=O)c2ccncc2)c(CCN(C)C(C)=O)cc2c1OCO2,,inactive: -13.4%
COCc1nc2ccccc2n1CCOc1cccc(C)c1,,inactive: 8.69%
COc1ccc(S(=O)(=O)N2CCOC2CNC(=O)C(=O)NCCCn2ccnc2)cc1OC (configuration not stated),active: 22.4 µM,
Cc1c(/C=N\NC(=O)C2COc3ccccc3O2)c2ccccc2n1C (configuration not stated),"inconclusive: 70.8 µM [inhibitor, partial curve]",
Cc1ccc(C)c(N2CCN(C(=O)C34CC5CC(C3)CC(n3nnc(C)n3)(C5)C4)CC2)c1,"inconclusive: 79.4 µM [inhibitor, single point]",
Cc1cccc(NC(=O)CSc2nccn2Cc2ccc(F)cc2)c1C,,inactive: -34.4%
CCOC(=O)C1CCCN(C(=O)c2ccc(-c3ccc([N+](=O)[O-])cc3)o2)C1 (configuration not stated),"inconclusive: 79.4 µM [inhibitor, single point]",
COc1cc(/C=C/C(=O)OCC(=O)N2CCc3ccccc3C2)ccc1O,"inconclusive: 89.1 µM [inhibitor, single point]",
CC1CCN(CCCNC(=O)C2CCN(S(=O)(=O)N3CCCCC3)CC2)CC1,"inconclusive: 89.1 µM [inhibitor, single point]",
Cc1ccccc1NCc1ccccc1O,active: 56.2 µM,
O=C(/C=C/c1ccccc1)NC(=S)NNC(=O)c1cccnc1,,inactive: -8.32%
Cc1ccccc1N1C(=O)CC(Nc2ccc3c(c2)OCO3)C1=O (configuration not stated),"inconclusive: 39.8 µM [inhibitor, partial curve]",
O=C1c2ccccc2NC(c2cnc3ccccc3n2)N1O (configuration not stated),"inconclusive: 89.1 µM [inhibitor, single point]",
O=C(O)c1c[nH]c2ccc(F)cc2c1=O,active: 56.2 µM,
COCCn1c(C)cc(C(=O)COC(=O)C2CC(=O)N(CCc3ccc(OC)c(OC)c3)C2)c1C (configuration not stated),"inconclusive: 89.1 µM [inhibitor, single point]",
O=c1c2ccccc2[nH]c(=S)n1CCCN1CCC(Cc2ccccc2)CC1,"inconclusive: 79.4 µM [inhibitor, single point]",
Cc1ccc(-n2c(Cc3cccn3C)nnc2SCC(=O)NC2CCCCC2)cc1,"inconclusive: 79.4 µM [inhibitor, single point]",
CC1CCCCN1C(=O)CSc1n[nH]c(-c2ccccc2Cl)n1 (configuration not stated),,inactive: 4.75%
Cc1ccc(C(=O)/C=C/c2ccccc2[N+](=O)[O-])cc1,"inconclusive: 28.2 µM [inhibitor, full curve]",
O=C(CC1N=C2c3ccccc3N=C(SCc3cccc(Cl)c3)N2C1=O)NCc1ccc2c(c1)OCO2 (configuration not stated),,inactive: -11.8%
O=C(c1cc2nc(-c3ccco3)cc(C(F)(F)F)n2n1)N1CCN(c2ccccc2)CC1,"inconclusive: 44.7 µM [inhibitor, partial curve]",
Cc1ccc(OCCn2cc(/C=C3\C(=O)NN(c4ccccc4)C3=O)c3ccccc32)cc1,"inconclusive: 79.4 µM [inhibitor, single point]",
CCOC(=O)c1c(C)[nH]c(C)c1-c1ccccc1OC,"inconclusive: 25.1 µM [inhibitor, single point]",
